Consider one molecule from PubChem BioAssay (NCI).

Molecules are shown by their SMILES.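 Results reflect a 48-hour exposure of cells in 96-well plates to compound at five concentrations. GI50 = concentration required for 50% inhibition of growth.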 Certain results were filed several times, with different values. They are shown here; other results are not. There may be further records. A record mostly stands for its own series of concentrations, which the source does not state; some values may only mark the edge of a range. A tag in brackets gives the origin of a value. The letters are not those of the source and start again with each entry.

The test system of this experiment is MDA-MB-468 breast. As to the kind of experiment: inhibition of tumour cell growth, NCI panel, 48 h.

As for `CCc1c2c(nc3ccc(OC(=O)N4CCC(N5CCCCC5)CC4)cc13)-c1cc3c(c(=O)n1C2)COC(=O)[C@]3(O)CC`, the GI50 is 2.17 µM [sample A, 1 test] and 192 nM, 266 nM [sample B, 1 test].
